The list shows a part of the results.
B1: 134350459_134350579_3058_CDS_ENSG00000130723_ENST00000357304|human|control|control (ssRNA)
RNA: GGGAGUUCUACAGUCCGACGAUCUUCAAAUUUGGUGGCCUCGCGGCCAAAAGUGGCAUGGCCAGGGCCUUUGUCCUCCAAAGUGGUGGUGGAGGAGUUGGCCAGAGAGGCAUCGUUCUCUUCGUCCUCAUCCUUUUCUGCCGUCAACAGAGGAUUGAGCAUCA
B2: chr4:99338562:99338563:+_ENSG00000138698_ENST00000453712|hu_mus|FALSE|FALSE (ssRNA)
RNA: GGGAGUUCUACAGUCCGACGAUCCCCAGCCAGCUGCAGCUGGUGGUUAUUCGAUGGGAUCCAGGAGAGCACCCUUUGGAACACACUGCCUUUUCCUCCUUCAAAAAGUUUCUGCAUGGACUCAUCUCCAAGCAGUAAUAAAACCAACAGAGGAUUGAGCAUCA
B3: chr3:148802587:148802588:-_ENSG00000071794_ENST00000310053|hu_mus|hu_hu_hu_mus_False|48_48 (ssRNA)
RNA: GGGAGUUCUACAGUCCGACGAUCUCCAACAACUUGUCCUCUCAUAGUUCCAAAUAAAACCAAAUCUUGCUCUUCAUCACUCGUUAGAAAGUCAUCUGGAGGAAUAAUGUCUUGGAAUUCAAAAUGUGGCAAGAAAGUUGAGUACAACAGAGGAUUGAGCAUCA
B4: chr9:34402745:34402746:-_ENSG00000164970_ENST00000297620|hu_mus|FALSE|FALSE (ssRNA)
RNA: GGGAGUUCUACAGUCCGACGAUCAGGGACGACCAGCCUCGUCCGGGCCAUGACGUUGUUCUUCUUGGGUUGCUGGUUGACAGGGCUGCCCAUGCUGCCGUUCUUCAGGGAACCCUUCCGGGCCAGCUCCCGUUGCUUCUCCUCCAACAGAGGAUUGAGCAUCA
B5: chr11:21048517:21048518:+_ENSMUSG00000020134_ENSMUST00000093290|mus_mus|motif|central (ssRNA)
RNA: GGGAGUUCUACAGUCCGACGAUCAACCCAAUCACUUAGCUUAUAAACUUACAAUGCAGUCCUGGAGGACAGCUGCGGGUCGGAAGGUCCUUGGAAAAUAAGUCUGAUAUAGCCUUGUUCACCAGCCAACUGAUGUGCACAGAACAACAGAGGAUUGAGCAUCA
B6: chr7:151048522:151048523:+_ENSG00000013374_ENST00000566856|hu_mus|hu_hu_hu_mus_True|28_98 (ssRNA)
RNA: GGGAGUUCUACAGUCCGACGAUCCUGUUUCUUAUUUAUGACAAUUUUGAUGUAAUUUUCUUGAAAUCCGAAAGUUUCAGCUAUUUGACACCUCAGGUCUCUACCAGUGAUGUGCAAGCGGGUCUCCAACAAGCUUUUCUUAUCCAACAGAGGAUUGAGCAUCA
B7: chr4:107252891:107252892:+_ENSG00000164022_ENST00000394701|hu_hu|motif|central (ssRNA)
RNA: GGGAGUUCUACAGUCCGACGAUCAGGGUGUUUUCUAGCAGUUAUGAUGCAACCAAUUCGAAGAUCCAGACGGGAAACAUCGGUUGGCUUAGAGUCGGCACUUCCAGCUAUUGAUUGCUGUUUUUUCUCCUUCUUCUCUCCUUUCAACAGAGGAUUGAGCAUCA
B8: chr7:7679991:7679992:-_ENSG00000106399_ENST00000396682|hu_hu|hu_hu_hu_mus_False|78_88 (ssRNA)
RNA: GGGAGUUCUACAGUCCGACGAUCUGGGAUGAAUCUUUUCCAGCUUCCCUACGAAGCAGACAGGCUUGUCGAUAUACUGUGGUAACAUGCUGGCGUUGACGCGCGCUUUGGGGAGCUGCAUUAUGUCCUCCAUGAUUCUGCCGCCAACAGAGGAUUGAGCAUCA
B9: chr5:138721144:138721145:-_ENSMUSG00000029510_ENSMUST00000161827|mus_mus|motif|central (ssRNA)
RNA: GGGAGUUCUACAGUCCGACGAUCUAGAACCCCGUUCUCGGCCGCGGGACGUCUCGAAGAAAAGAAUAGGAGCGUGUCCCCGGAAACUGAACAACCCCAGCACCGUAGCAGGACCAGGAGGCAUCUGCGGAGACAAUGGGAGCCCAACAGAGGAUUGAGCAUCA
B10: chr11:69803913:69803914:+_ENSMUSG00000018559_ENSMUST00000108593|mus_hu|FALSE|FALSE (ssRNA)
RNA: GGGAGUUCUACAGUCCGACGAUCCCAAAAUCCCAGUAUCCCACCCACAGCCCAGCCCUUGGAGCAGGAGUGAAGAAUUAGAUCAGUUUUGUACAAGAGUUUUUUAAAAAAAAUCAAAUCACAACAAAGCUGACUUGGCUUCUCCAACAGAGGAUUGAGCAUCA
B11: 151572476_151578043_2371_3pUTR_ENSMUSG00000034021_ENSMUST00000016569|mouse|control|control (ssRNA)
RNA: GGGAGUUCUACAGUCCGACGAUCUACAAUGGAUGGCGUAUUUGGCCUGCCGAGGUGGUCCUUUUUUGGAUUUGUGAUGUAGUACAGGAAGCAAGGCUGAUCUGAUGUGAGGGAAAUCCUCUUCAAUUUUGCUUCCUGUGUUUUCAACAGAGGAUUGAGCAUCA
B12: chr16:18254220:18254221:-_ENSMUSG00000022718_ENSMUST00000009321|mus_mus|FALSE|FALSE (ssRNA)
RNA: GGGAGUUCUACAGUCCGACGAUCCCUGUAAGAGACAGGGAGGGCACUGGAGACCAGGAAUGUGUGGCAGCACCUGUUGACAGUGCCUGGGUCGGUGAGGCUGCAGAGAUACCACCAUUACCAUAUGCUUUUUCAAUGUUAAGUCAACAGAGGAUUGAGCAUCA
B13: chr1:60041781:60041782:+_ENSMUSG00000041040_ENSMUST00000036540|mus_hu|mus_mus_mus_hu_False|1_28 (ssRNA)
RNA: GGGAGUUCUACAGUCCGACGAUCAAGUUUACAAUAGUAAAGUAAAUGCAGUAGUGGCAAAUUUUCUUUUAUUUUCCUUCACAAAAGAAAAUCUUUAUAACCCAGUCCAAUCCCAGAACAUAGUGAAAGCUAUAAAUGCCACUGCAACAGAGGAUUGAGCAUCA
B14: chr2:104430793:104430794:+_ENSMUSG00000027176_ENSMUST00000028599|mus_hu|FALSE|FALSE (ssRNA)
RNA: GGGAGUUCUACAGUCCGACGAUCCGUCUCCUGACAUGGCCUCAGCUGAUUACAACGUGCGCACUGACCGUCGAUGGGAAGCUAGAAAAGAAAAAUUAAACUAAAAACCACCCCCAAAUCAGUAAAGUUACCCCCUGCCCAGCUCAACAGAGGAUUGAGCAUCA

What follows are binders tested against T1, UNK ZnF1-3 (human, UniProt Q9C0B0 31-174) (assay: nsRBNS (natural sequence RNA bind-n-seq); RBNS binding buffer (assumed for nsRBNS): 25 mM Tris pH 7.5, 150 mM KCl, 3 mM MgCl2, 0.01% Triton X-100, 500 ug/ml BSA, 20 U/ml SUPERase-In, 4 C; UNK is unkempt and MSI1 is Musashi-1; names of the RNAs are library labels; protein concentration not given here; high values mean tight binding).
T1 sequence: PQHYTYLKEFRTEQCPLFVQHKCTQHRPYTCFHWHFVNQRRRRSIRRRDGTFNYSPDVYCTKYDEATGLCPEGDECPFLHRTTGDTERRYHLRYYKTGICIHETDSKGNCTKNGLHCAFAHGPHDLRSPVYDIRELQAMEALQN
B1 gave a binding signal of 0.689 enrichment R. For B2, the binding signal was 1.76 enrichment R. B3 gave a binding signal of 1.3 enrichment R. In the case of B4, the binding signal is reported as 0.556 enrichment R. In the case of B5, the binding signal is reported as 1.31 enrichment R. In the case of B6, the binding signal is reported as 0.73 enrichment R. B7 was tested, and the binding signal was 0.614 enrichment R. In the case of B8, the binding signal is reported as 0.667 enrichment R. Binder B9 has a binding signal of 1.39 enrichment R. In the case of B10, the binding signal is reported as 1.13 enrichment R. Binder B11 has a binding signal of 0.313 enrichment R. B12 showed a binding signal of 1.02 enrichment R. In the case of B13, the binding signal is reported as 0.658 enrichment R. With B14 the binding signal was 2.43 enrichment R.

— article PMC12136788
